Test results taken from the supplement of paper PMC11417369.
± gives the standard deviation of the averaged measurements. The list shows a part of the results.

Tested on: PfAP2-G AP2 domain (GST-tagged)
Assay: gcPBM binding intensity (ln(normalized median fluorescence intensity)); higher = stronger DNA binding
Method in brief: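 GST-tagged P. falciparum DNA-binding domains produced in E. coli were incubated for 1 h on an Agilent 4 × 180k array of primer-extended double-stranded 36-bp intergenic genomic probes with negative controls. Binding intensity is the highest Masliner-normalised natural-log median intensity across replicate spots of either probe orientation, with bound protein detected by Alexa488 anti-GST antibody at 488 nm.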

Sequence | gcPBM binding intensity (ln)
AAAATTCTTCGGGGGAGTACAAGGATATTCTACGTT [XGTACX_site3974] | 11.6 ± 0.98
TTATAATATATATGTGGTACTTATTTATTTATTTAT [XGTACX_site7572] | 11.1 ± 0.76
ATTTTTGATTTTAAAAGTACATAAGTATACTATTTA [XGTACX_site7162] | 11.2 ± 0.83
TTTTGTAATTTTGTATGTACACATTAAAGTAATATG [XGTACX_site2401] | 11.5 ± 0.91
TAATTAATATATTTTTGTACTTATATATTTGCGTAT [XGTACX_site340] | 11 ± 0.55
AATCCACAAAGACACACACACACATATATATATATA [CACACA_site1269] | 10.4 ± 0.63
GTTAATATACATAAACGTACAGAATTATTATGAGTT [XGTACX_site5185] | 11.2 ± 0.82
CTTTTGCCCAAAAAGGTACACACCACAATGTACATA [CACACA_site809] | 11.6 ± 0.91
CCAATTCAAATATGCACACAAATTTGAAAACGATTA [CACACA_site3607] | 10.1 ± 0.19
TAAATAATCGCATAATGTACATATAATTTTTTTTTT [XGTACX_site4880] | 11 ± 0.56
AAAATTTTTTTTATTTGTACACAATTCGATACATAA [XGTACX_site4804] | 11.3 ± 0.74
GCTTGGATATATTAATGTACTTATATATTATGTTGT [XGTACX_site3768] | 11.2 ± 0.77
ATATTTTCAATGTTCACACATACACAAAAAAAAAAA [CACACA_site6077] | 10.2 ± 0.41
TTTGTTGTTGTGAAACGTACTCATAGGATGTTGTAT [XGTACX_site5716] | 11 ± 0.57
ATTAAAAAATCCATAGTGCACTACGATAGGTTCCGA [GTGCAC_site9463] | 10.3 ± 0.22
AAAGATGGAGTGATATGTACTGATATATTATTATAT [XGTACX_site6500] | 10.8 ± 0.52
ATATAGTAAAGTTATACACACATGAATTTTCCCATA [CACACA_site7457] | 9.91 ± 0.085
ATATTTTAATTATAAAGTACATAAAAATATATAAAC [XGTACX_site6705] | 11.2 ± 0.78
TAAAAATGTAAACACACACACATAAATATATTTTAT [CACACA_site5397] | 9.98 ± 0.057

Sequence | gcPBM binding intensity (ln)
TTTTTTATTGTGATACGTATATTATTTTATGATAAA [CACACA_negctrl_site1591] | 10.6 ± 0.27
TTTTTTAAACGTTTAAATAATTAAATATAAATAAAT [CACACA_negctrl_site1567] | 9.72 ± 0.15
TGAACAACTATTACTGCACACATTCTTACACTATAT [CACACA_site4533] | 10.23 ± 0.021
TACGCAAAATAAAATCAAAATATAAGGAAAAAAAAA [TGCATGCA_negctrl_site578] | 9.77 ± 0.11
AGGTGTCATATATGCACACAAAAGTAACACGCACCT [CACACA_site472] | 10.33 ± 0.042
AAAAAAGAAACAATCGCATGCAATGTTAATGTACAT [TGCATGCA_site395] | 10.6 ± 0.4
GTGTAATGCTTATCGGTGCATATATATATATATATA | 9.96 ± 0.22
GACCTACAAAAAGGCACACATATACTCATACATACA [CACACA_site5232] | 10.2 ± 0.064
ACATTTATTTTGAATGGTACACTATTATTATGAAAT [XGTACX_site4384] | 11 ± 0.59
AAAAAAAAAAAAGGTACTACACACTATTATCAATAG [XGTACX_site161] | 11.1 ± 0.68
GATAATTTTTGCATATGTACTTAAAAATTAAAAATT [XGTACX_site7037] | 11.3 ± 0.95
ATACTGTATGAAAGCACACATACTTATTACTAACAT [CACACA_site4164] | 10.16 ± 0.085
CAAATAACAAAATAATGTACATTTATACTTTTTTTT [XGTACX_site943] | 10.8 ± 0.38
TATACATATTTGTATTGTACATAAACTAAATCTTCA [XGTACX_site610] | 11 ± 0.5
TAATATTTATCAAGTCGTACATAAAATGTATAATAA [XGTACX_site1103] | 11.4 ± 1
ACAAAGAAATATAATACACACAAGAATATATTGGAT [CACACA_site3901] | 9.88 ± 0.099
GTACAATAAGATGTAGCATGCCGTACCTTCACTACG [TGCATGCA_site235] | 11.2 ± 0.28
TCTAATAAAATAAATACATGCATACATACATACATA [TGCATGCA_site895] | 9.9 ± 0.16
AGGATTATATATTAATGTACCCGCGTTAATTTTTTT [XGTACX_site2878] | 11.5 ± 0.88

Sequence | gcPBM binding intensity (ln)
AAATAGAGAAATACAAGTACATACTAAACCTATCTA [XGTACX_site1334] | 11.3 ± 0.79
TATACTGTCAATTCTACACACCATAGGGGGAGCATA [CACACA_site1875] | 11.1 ± 0.64
CACCAATTCATATGCACACACATCTGCATATTATAT [CACACA_site1773] | 10.2 ± 0.12
ATTAAAAGAACAATGTAAAAAAAGCAAATTAAAGAT [TGCATGCA_negctrl_site360] | 10.15 ± 0.035
ATGTATAAACATATATGTACTTAAATAAAATGTTAA [XGTACX_site4044] | 11.2 ± 0.72
AAAAATAAAAAAATAATAAAATAAAAAATAAAAAAT [TGCATGCA_negctrl_site89] | 9.56 ± 0.12
TAAAAAAACATATATTGTACGGAGATAATAATTTTT [XGTACX_site2946] | 10.6 ± 0.31
GAAATGTGTAGACACGCACACACAAAAAAATATATA [CACACA_site2912] | 10.2 ± 0.34
TTATTAAATGAAAAATGTACATATAAATGATTATAT [XGTACX_site2788] | 11.1 ± 0.65
AAGCATGTAGAATAATGTACTTGTGATTTTAATATA [XGTACX_site8565] | 10.9 ± 0.54
CCAAATTTATAAAGAACACACACATATATATATATA [CACACA_site7900] | 10 ± 0.26
TATACATATTTAATATGTACATAATAATACTTATTC [XGTACX_site6939] | 11.2 ± 0.76
TATATTAACAAAATGGTGCAATAATTTCTATATTAT [GTGCAC_site9857] | 10.1 ± 0.22
AAAAAAAAAATACAGGTGCAATAAGAAAAAAATGGT | 10.25 ± 0.085
ATATAGGTAATATTTTGTACATATTTTTGGGGTAGT [XGTACX_site5634] | 11.1 ± 0.52
AATTCTTTTTTCAACACACACACACCCGAAAATATA [CACACA_site3111] | 10.3 ± 0.28
CATACATACATACATACACACATACATATATATATA [CACACA_site8388] | 10.6 ± 0.45
TCTAAAATAGTCCAGAGTACAAGAAACCATAATATA [XGTACX_site5237] | 11.3 ± 0.79
ATATTTTTTGTATGTTGTACATAAAATATACATTTT [XGTACX_site6815] | 11.2 ± 0.88
